# Laboratory results as given in the supplement of paper PMC8728848.
# This is one part of the list.
# B1: GS7807E-bfa-538-23-538 (Bacteroides fragilis) (protein)
# chain: TDSFESFNTNEAGFDNDSKKQDFNYYGIPLGIIQQGIYFNYDWGSGKNWPFQTMQNLGADLFSGYVHDFNPFNEGKNNSTYYMMDGWNGSTWDNTYGYIMPEVQKSETINEKDNIGFFGITKILKVELMHRLSDLYGPIVYTQFGSKTGSTPDTQQEAYKAFFNDLDTGIAKIREYQKANPDIESFAKFDILMPQGKRTFSEWIRFANSLRLRLAVRIAMADSKLAVAEAQKALTDEEGLLEGNDEVVAVSTSSGYTNPFGEINKAWGEVFMNANMESLLVGYEDPRMEKYFDKATGSDATSLIDYKGTYKGIRQGTGFSHKNYNGHSKSTITQQTDAVLMTPAEVWFLRAEAALRGWSSESVKDCYEKGVKASFAQWGAAGAEAYLESDRKPSDYVDAFKAANNVKAVNTLTPKWDDAAGNEDKLGRIITQKWLAMFPEGGEAWAEQRRTGYPRLFPVLVNQSEGTVDTNLGPRRLNFFVGIKTTNPEQYTQLVNALGGIDNCGTRLWWDTGRNF
# Tests used:
# Assay in all cases: glycan array binding signal (z-score within array); higher = stronger binding
# Conditions in all cases: glycan notation: IUPAC condensed, linker removed
# [1] = biological target: Gal(b1-4)GlcNAc(b1-2)[Gal(b1-4)GlcNAc(b1-6)]Man(a1-6)[GlcNAc(b1-4)][Gal(b1-4)GlcNAc(b1-2)Man(a1-3)]Man(b1-4)GlcNAc(b1-4)GlcNAc
# Summary of the method: (§1)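 The binding signal is a Z-score computed within each array. Data were drawn from 3228 arrays in the Consortium for Functional Glycomics database, restricted to those with a known protein sequence. Scores were averaged over arrays of the same protein sequence at different concentrations or buffers, and over linkers, and negative values can be taken as non-binding.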
# [2] = biological target: Gal(b1-4)GlcNAc(b1-2)[Gal(b1-4)GlcNAc(b1-6)]Man(a1-6)[GlcNAc(b1-4)][Gal(b1-4)GlcNAc(b1-2)[Gal(b1-4)GlcNAc(b1-4)]Man(a1-3)]Man(b1-4)GlcNAc(b1-4)[Fuc(a1-6)]GlcNAc
# Summary of the method: as §1
# [3] = biological target: Gal(b1-4)GlcNAc(b1-3)Gal(b1-3)GalNAc
# Summary of the method: as §1
# [4] = biological target: Gal(b1-4)GlcNAc(b1-3)Gal(b1-3)GlcNAc
# Summary of the method: as §1
# [5] = biological target: Gal(b1-4)GlcNAc(b1-3)Gal(b1-4)Glc
# Summary of the method: as §1
# [6] = biological target: Gal(b1-4)GlcNAc(b1-3)Gal(b1-4)GlcNAc
# Summary of the method: as §1
# [7] = biological target: Gal(b1-4)GlcNAc(b1-3)Gal(b1-4)GlcNAc(b1-2)Man(a1-3)[Gal(b1-4)GlcNAc(b1-3)Gal(b1-4)GlcNAc(b1-2)Man(a1-6)]Man(b1-4)GlcNAc(b1-4)GlcNAc
# Summary of the method: as §1
# [8] = biological target: Gal(b1-4)GlcNAc(b1-3)Gal(b1-4)GlcNAc(b1-2)Man(a1-3)[Gal(b1-4)GlcNAc(b1-3)Gal(b1-4)GlcNAc(b1-2)Man(a1-6)]Man(b1-4)GlcNAc(b1-4)[Fuc(a1-6)]GlcNAc
# Summary of the method: as §1
# [9] = biological target: Gal(b1-4)GlcNAc(b1-3)Gal(b1-4)GlcNAc(b1-2)[Gal(b1-4)GlcNAc(b1-3)Gal(b1-4)GlcNAc(b1-6)]Man(a1-6)[Gal(b1-4)GlcNAc(b1-3)Gal(b1-4)GlcNAc(b1-2)Man(a1-3)]Man(b1-4)GlcNAc(b1-4)GlcNAc
# Summary of the method: as §1
# [10] = biological target: Gal(b1-4)GlcNAc(b1-3)Gal(b1-4)GlcNAc(b1-2)[Gal(b1-4)GlcNAc(b1-3)Gal(b1-4)GlcNAc(b1-6)]Man(a1-6)[Gal(b1-4)GlcNAc(b1-3)Gal(b1-4)GlcNAc(b1-2)Man(a1-3)]Man(b1-4)GlcNAc(b1-4)[Fuc(a1-6)]GlcNAc
# Summary of the method: as §1
# [11] = biological target: Gal(b1-4)GlcNAc(b1-3)Gal(b1-4)GlcNAc(b1-3)Gal(b1-4)GlcNAc
# Summary of the method: as §1
# [12] = biological target: Gal(b1-4)GlcNAc(b1-3)Gal(b1-4)GlcNAc(b1-3)Gal(b1-4)GlcNAc(b1-2)Man(a1-3)[Gal(b1-4)GlcNAc(b1-3)Gal(b1-4)GlcNAc(b1-3)Gal(b1-4)GlcNAc(b1-2)Man(a1-6)]Man(b1-4)GlcNAc(b1-4)GlcNAc
# Summary of the method: as §1
# [13] = biological target: Gal(b1-4)GlcNAc(b1-3)Gal(b1-4)GlcNAc(b1-3)Gal(b1-4)GlcNAc(b1-2)Man(a1-3)[Gal(b1-4)GlcNAc(b1-3)Gal(b1-4)GlcNAc(b1-3)Gal(b1-4)GlcNAc(b1-2)Man(a1-6)]Man(b1-4)GlcNAc(b1-4)[Fuc(a1-6)]GlcNAc
# Summary of the method: as §1
# [14] = biological target: Gal(b1-4)GlcNAc(b1-3)Gal(b1-4)GlcNAc(b1-3)Gal(b1-4)GlcNAc(b1-2)[Gal(b1-4)GlcNAc(b1-3)Gal(b1-4)GlcNAc(b1-3)Gal(b1-4)GlcNAc(b1-6)]Man(a1-6)[Gal(b1-4)GlcNAc(b1-3)Gal(b1-4)GlcNAc(b1-3)Gal(b1-4)GlcNAc(b1-2)Man(a1-3)]Man(b1-4)GlcNAc(b1-4)[Fuc(a1-6)]GlcNAc
# Summary of the method: as §1
# [15] = biological target: Gal(b1-4)GlcNAc(b1-3)Gal(b1-4)GlcNAc(b1-3)Gal(b1-4)GlcNAc(b1-3)Gal(b1-4)GlcNAc(b1-2)Man(a1-3)[Gal(b1-4)GlcNAc(b1-3)Gal(b1-4)GlcNAc(b1-3)Gal(b1-4)GlcNAc(b1-3)Gal(b1-4)GlcNAc(b1-2)Man(a1-6)]Man(b1-4)GlcNAc(b1-4)GlcNAc
# Summary of the method: as §1
# [16] = biological target: Gal(b1-4)GlcNAc(b1-3)Gal(b1-4)GlcNAc(b1-3)Gal(b1-4)GlcNAc(b1-3)Gal(b1-4)GlcNAc(b1-2)Man(a1-3)[Gal(b1-4)GlcNAc(b1-3)Gal(b1-4)GlcNAc(b1-3)Gal(b1-4)GlcNAc(b1-3)Gal(b1-4)GlcNAc(b1-2)Man(a1-6)]Man(b1-4)GlcNAc(b1-4)[Fuc(a1-6)]GlcNAc
# Summary of the method: as §1
# [17] = biological target: Gal(b1-4)GlcNAc(b1-3)Gal(b1-4)GlcNAc(b1-3)Gal(b1-4)GlcNAc(b1-3)Gal(b1-4)GlcNAc(b1-2)[Gal(b1-4)GlcNAc(b1-3)Gal(b1-4)GlcNAc(b1-3)Gal(b1-4)GlcNAc(b1-3)Gal(b1-4)GlcNAc(b1-6)]Man(a1-6)[Gal(b1-4)GlcNAc(b1-3)Gal(b1-4)GlcNAc(b1-3)Gal(b1-4)GlcNAc(b1-3)Gal(b1-4)GlcNAc(b1-2)Man(a1-3)]Man(b1-4)GlcNAc(b1-4)[Fuc(a1-6)]GlcNAc
# Summary of the method: as §1
# [18] = biological target: Gal(b1-4)GlcNAc(b1-3)Gal(b1-4)GlcNAc(b1-3)Gal(b1-4)GlcNAc(b1-3)Gal(b1-4)GlcNAc(b1-3)Gal(b1-4)GlcNAc(b1-2)Man(a1-3)[Gal(b1-4)GlcNAc(b1-3)Gal(b1-4)GlcNAc(b1-3)Gal(b1-4)GlcNAc(b1-3)Gal(b1-4)GlcNAc(b1-3)Gal(b1-4)GlcNAc(b1-2)Man(a1-6)]Man(b1-4)GlcNAc(b1-4)GlcNAc
# Summary of the method: as §1
# [19] = biological target: Gal(b1-4)GlcNAc(b1-3)Gal(b1-4)GlcNAc(b1-3)Gal(b1-4)GlcNAc(b1-3)Gal(b1-4)GlcNAc(b1-3)Gal(b1-4)GlcNAc(b1-2)Man(a1-3)[Gal(b1-4)GlcNAc(b1-3)Gal(b1-4)GlcNAc(b1-3)Gal(b1-4)GlcNAc(b1-3)Gal(b1-4)GlcNAc(b1-3)Gal(b1-4)GlcNAc(b1-2)Man(a1-6)]Man(b1-4)GlcNAc(b1-4)[Fuc(a1-6)]GlcNAc
# Summary of the method: as §1
# [20] = biological target: Gal(b1-4)GlcNAc(b1-3)Gal(b1-4)GlcNAc(b1-3)Gal(b1-4)GlcNAc(b1-3)Gal(b1-4)GlcNAc(b1-3)Gal(b1-4)GlcNAc(b1-2)[Gal(b1-4)GlcNAc(b1-3)Gal(b1-4)GlcNAc(b1-3)Gal(b1-4)GlcNAc(b1-3)Gal(b1-4)GlcNAc(b1-3)Gal(b1-4)GlcNAc(b1-6)]Man(a1-6)[Gal(b1-4)GlcNAc(b1-3)Gal(b1-4)GlcNAc(b1-3)Gal(b1-4)GlcNAc(b1-3)Gal(b1-4)GlcNAc(b1-3)Gal(b1-4)GlcNAc(b1-2)Man(a1-3)]Man(b1-4)GlcNAc(b1-4)[Fuc(a1-6)]GlcNAc
# Summary of the method: as §1
# [21] = biological target: Gal(b1-4)GlcNAc(b1-3)Gal(b1-4)GlcNAc(b1-3)Gal(b1-4)GlcNAc(b1-3)Gal(b1-4)GlcNAc(b1-3)Gal(b1-4)GlcNAc(b1-3)Gal(b1-4)GlcNAc(b1-2)Man(a1-3)[Gal(b1-4)GlcNAc(b1-3)Gal(b1-4)GlcNAc(b1-3)Gal(b1-4)GlcNAc(b1-3)Gal(b1-4)GlcNAc(b1-3)Gal(b1-4)GlcNAc(b1-3)Gal(b1-4)GlcNAc(b1-2)Man(a1-6)]Man(b1-4)GlcNAc(b1-4)GlcNAc
# Summary of the method: as §1
# [22] = biological target: Gal(b1-4)GlcNAc(b1-3)Gal(b1-4)GlcNAc(b1-3)GalNAc
# Summary of the method: as §1
# [23] = biological target: Gal(b1-4)GlcNAc(b1-3)Gal(b1-4)GlcNAc(b1-3)[Gal(b1-4)GlcNAc(b1-3)Gal(b1-4)GlcNAc(b1-6)]GalNAc
# Summary of the method: as §1
# [24] = biological target: Gal(b1-4)GlcNAc(b1-3)Gal(b1-4)GlcNAc(b1-6)[Gal(b1-3)]GalNAc
# Summary of the method: as §1
# [25] = biological target: Gal(b1-4)GlcNAc(b1-3)Gal(b1-4)[Fuc(a1-3)]GlcNAc(b1-3)Gal(b1-4)[Fuc(a1-3)]GlcNAc
# Summary of the method: as §1
# [26] = biological target: Gal(b1-4)GlcNAc(b1-3)GalNAc
# Summary of the method: as §1
# [27] = biological target: Gal(b1-4)GlcNAc(b1-3)[Fuc(a1-3)GlcNAc(b1-6)]Gal(b1-4)Glc
# Summary of the method: as §1
# [28] = biological target: Gal(b1-4)GlcNAc(b1-3)[Gal(b1-4)GlcNAc(b1-6)]Gal(b1-4)GlcNAc
# Summary of the method: as §1
# [29] = biological target: Gal(b1-4)GlcNAc(b1-3)[GlcNAc(b1-6)]Gal(b1-4)GlcNAc
# Summary of the method: as §1
# [30] = biological target: Gal(b1-4)GlcNAc(b1-6)Gal(b1-4)GlcNAc
# Summary of the method: as §1
# [31] = biological target: Gal(b1-4)GlcNAc(b1-6)GalNAc
# Summary of the method: as §1
# [32] = biological target: Gal(b1-4)GlcNAc(b1-6)[Gal(b1-3)]GalNAc
# Summary of the method: as §1
# [33] = biological target: Gal(b1-4)GlcNAc(b1-6)[Gal(b1-4)GlcNAc(b1-3)]GalNAc
# Summary of the method: as §1
# Gal(b1-4)GlcNAc6P = biological target: Gal(b1-4)GlcNAc6P
# Summary of the method: as §1
# Gal(b1-6)Gal = biological target: Gal(b1-6)Gal
# Summary of the method: as §1
# Gal3S(b1-3)GalNAc = biological target: Gal3S(b1-3)GalNAc
# Summary of the method: as §1
# Gal3S(b1-3)GlcNAc = biological target: Gal3S(b1-3)GlcNAc
# Summary of the method: as §1
# [34] = biological target: Gal3S(b1-3)[Fuc(a1-4)]GlcNAc
# Summary of the method: as §1
binder,measurement,setting,value
B1,glycan array binding signal (z-score),[1],0.637
same,glycan array binding signal (z-score),[2],-0.314
same,glycan array binding signal (z-score),[3],0.715
same,glycan array binding signal (z-score),[4],-0.306
same,glycan array binding signal (z-score),[5],-0.446
same,glycan array binding signal (z-score),[6],-0.483
same,glycan array binding signal (z-score),[7],0.271
same,glycan array binding signal (z-score),[8],2.56
same,glycan array binding signal (z-score),[9],1.76
same,glycan array binding signal (z-score),[10],2.08
same,glycan array binding signal (z-score),[11],-0.255
same,glycan array binding signal (z-score),[12],1.59
same,glycan array binding signal (z-score),[13],2.1
same,glycan array binding signal (z-score),[14],4.56
same,glycan array binding signal (z-score),[15],1.91
same,glycan array binding signal (z-score),[16],2.83
same,glycan array binding signal (z-score),[17],0.716
same,glycan array binding signal (z-score),[18],1.24
same,glycan array binding signal (z-score),[19],0.752
same,glycan array binding signal (z-score),[20],0.867
same,glycan array binding signal (z-score),[21],0.83
same,glycan array binding signal (z-score),[22],-0.329
same,glycan array binding signal (z-score),[23],0.715
same,glycan array binding signal (z-score),[24],4.07
same,glycan array binding signal (z-score),[25],0.531
same,glycan array binding signal (z-score),[26],-0.315
same,glycan array binding signal (z-score),[27],-0.477
same,glycan array binding signal (z-score),[28],-0.058
same,glycan array binding signal (z-score),[29],-0.572
same,glycan array binding signal (z-score),[30],-0.357
same,glycan array binding signal (z-score),[31],0.465
same,glycan array binding signal (z-score),[32],0.197
same,glycan array binding signal (z-score),[33],0.123
same,glycan array binding signal (z-score),Gal(b1-4)GlcNAc6P,0.764
same,glycan array binding signal (z-score),Gal(b1-6)Gal,-0.094
same,glycan array binding signal (z-score),Gal3S(b1-3)GalNAc,-0.562
same,glycan array binding signal (z-score),Gal3S(b1-3)GlcNAc,-0.514
same,glycan array binding signal (z-score),[34],-0.053
